These are yes or no findings as the source states them, for the method shown. In cells and extracts the contact can be indirect. Some binding calls cover weakened binding; strength is not graded here. Sequences can lack the tags named with a protein.
T1: Whi5^GST (expressed in yeast) (S. cerevisiae) (UniProt Q12416)
T1 sequence: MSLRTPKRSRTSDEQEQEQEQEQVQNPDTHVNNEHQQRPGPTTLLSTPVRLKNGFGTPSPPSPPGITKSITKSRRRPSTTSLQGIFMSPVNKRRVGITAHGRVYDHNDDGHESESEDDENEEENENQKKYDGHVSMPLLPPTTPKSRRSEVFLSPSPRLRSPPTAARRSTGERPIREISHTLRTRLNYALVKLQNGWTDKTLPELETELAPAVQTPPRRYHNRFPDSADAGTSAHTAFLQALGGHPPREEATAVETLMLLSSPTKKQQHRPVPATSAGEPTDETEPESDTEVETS

Sequences of proteins named here, by UniProt entry; tags and fusion partners are left off. A change or cut given only in a name is not applied to a line headed by its entry.
UniProt P25302: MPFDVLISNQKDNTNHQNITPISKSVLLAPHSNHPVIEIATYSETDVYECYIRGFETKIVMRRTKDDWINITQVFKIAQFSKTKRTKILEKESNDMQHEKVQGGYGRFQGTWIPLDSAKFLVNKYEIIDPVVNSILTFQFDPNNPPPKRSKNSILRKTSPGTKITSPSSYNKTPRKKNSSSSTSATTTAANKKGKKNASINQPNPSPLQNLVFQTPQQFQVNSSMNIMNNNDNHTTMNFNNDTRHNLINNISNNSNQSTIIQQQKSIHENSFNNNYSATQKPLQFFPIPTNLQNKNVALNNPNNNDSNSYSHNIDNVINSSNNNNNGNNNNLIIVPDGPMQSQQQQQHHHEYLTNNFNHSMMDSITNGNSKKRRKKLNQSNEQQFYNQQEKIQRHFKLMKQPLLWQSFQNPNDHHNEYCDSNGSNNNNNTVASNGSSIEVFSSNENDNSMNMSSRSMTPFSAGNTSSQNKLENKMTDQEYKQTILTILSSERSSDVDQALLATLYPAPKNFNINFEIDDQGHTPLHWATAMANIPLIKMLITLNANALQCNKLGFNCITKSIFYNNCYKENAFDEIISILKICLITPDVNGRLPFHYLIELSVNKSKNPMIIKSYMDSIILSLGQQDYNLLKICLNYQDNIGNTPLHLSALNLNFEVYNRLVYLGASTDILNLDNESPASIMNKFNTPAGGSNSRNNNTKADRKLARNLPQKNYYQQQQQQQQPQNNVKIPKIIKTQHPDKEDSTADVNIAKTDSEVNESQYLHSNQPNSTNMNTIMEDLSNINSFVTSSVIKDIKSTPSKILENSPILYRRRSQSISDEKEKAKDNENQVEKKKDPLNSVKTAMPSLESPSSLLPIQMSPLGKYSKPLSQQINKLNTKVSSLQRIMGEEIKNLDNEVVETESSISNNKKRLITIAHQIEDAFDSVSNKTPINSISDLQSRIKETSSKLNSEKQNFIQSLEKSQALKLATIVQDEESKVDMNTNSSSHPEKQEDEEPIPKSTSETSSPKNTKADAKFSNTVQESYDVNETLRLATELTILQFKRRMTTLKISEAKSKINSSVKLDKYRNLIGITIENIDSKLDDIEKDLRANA
UniProt P09959: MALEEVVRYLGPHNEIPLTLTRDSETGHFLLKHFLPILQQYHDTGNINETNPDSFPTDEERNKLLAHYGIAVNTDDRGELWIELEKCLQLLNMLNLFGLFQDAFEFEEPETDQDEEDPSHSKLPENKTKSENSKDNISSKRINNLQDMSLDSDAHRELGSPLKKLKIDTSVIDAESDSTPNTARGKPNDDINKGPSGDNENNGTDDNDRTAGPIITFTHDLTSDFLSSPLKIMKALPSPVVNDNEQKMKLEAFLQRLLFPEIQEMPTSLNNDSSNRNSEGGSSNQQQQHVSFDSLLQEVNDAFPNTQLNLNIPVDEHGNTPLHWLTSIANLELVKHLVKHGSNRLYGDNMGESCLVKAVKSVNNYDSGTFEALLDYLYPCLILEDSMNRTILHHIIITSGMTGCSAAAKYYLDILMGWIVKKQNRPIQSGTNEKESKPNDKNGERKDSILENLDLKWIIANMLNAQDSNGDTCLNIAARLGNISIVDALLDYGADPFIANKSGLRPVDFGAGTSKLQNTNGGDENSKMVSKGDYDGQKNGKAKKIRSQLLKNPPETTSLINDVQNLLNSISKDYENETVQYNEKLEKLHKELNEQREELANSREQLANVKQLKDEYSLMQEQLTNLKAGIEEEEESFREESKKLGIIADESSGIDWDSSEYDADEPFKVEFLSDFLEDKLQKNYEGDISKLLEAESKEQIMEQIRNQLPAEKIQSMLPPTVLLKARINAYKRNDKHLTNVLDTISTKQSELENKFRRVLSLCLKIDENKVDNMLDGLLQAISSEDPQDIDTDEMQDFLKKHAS

T2: Whi5^MYC (S. cerevisiae) (UniProt Q12416)
T2 sequence: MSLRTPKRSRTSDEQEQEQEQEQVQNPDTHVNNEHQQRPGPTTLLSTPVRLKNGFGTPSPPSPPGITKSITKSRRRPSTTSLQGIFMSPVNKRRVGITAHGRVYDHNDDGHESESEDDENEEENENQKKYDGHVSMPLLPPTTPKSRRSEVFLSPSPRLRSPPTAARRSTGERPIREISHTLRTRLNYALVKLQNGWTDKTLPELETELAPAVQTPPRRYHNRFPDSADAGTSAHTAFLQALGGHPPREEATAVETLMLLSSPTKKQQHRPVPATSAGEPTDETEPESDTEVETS


Substrate: SBF (Swi6-Swi4^FLAG) (S. cerevisiae) (UniProt P25302+P09959)
Assay: pull-down; insect cell lysate expressing SBF (Swi6-Swi4^FLAG) mixed with purified GST-Whi5 (~0.1 µg) and M2 anti-FLAG resin in kinase buffer (50 mM Tris-HCl pH 7.5, 1 mM DTT, 10 mM MgCl2), 4°C 1 h, washed; then incubated with CDKs and 0.2 mM ATP at 30°C 1 h; soluble and bound fractions by autoradiography; only the binder purified

binding	Binder
binds	GST-Whi5 (recombinant, E. coli) (protein, UniProt Q12416 1-295) MSLRTPKRSRTSDEQEQEQEQEQVQNPDTHVNNEHQQRPGPTTLLSTPVRLKNGFGTPSPPSPPGITKSITKSRRRPSTTSLQGIFMSPVNKRRVGITAHGRVYDHNDDGHESESEDDENEEENENQKKYDGHVSMPLLPPTTPKSRRSEVFLSPSPRLRSPPTAARRSTGERPIREISHTLRTRLNYALVKLQNGWTDKTLPELETELAPAVQTPPRRYHNRFPDSADAGTSAHTAFLQALGGHPPREEATAVETLMLLSSPTKKQQHRPVPATSAGEPTDETEPESDTEVETS
binds	GST-Whi5 phosphorylated by both Cln3-Cdc28 and Pcl9-Pho85 (protein, UniProt Q12416 1-295, phosphorylated in vitro by both Cln3-Cdc28 and Pcl9-Pho85; sites not given) MSLRTPKRSRTSDEQEQEQEQEQVQNPDTHVNNEHQQRPGPTTLLSTPVRLKNGFGTPSPPSPPGITKSITKSRRRPSTTSLQGIFMSPVNKRRVGITAHGRVYDHNDDGHESESEDDENEEENENQKKYDGHVSMPLLPPTTPKSRRSEVFLSPSPRLRSPPTAARRSTGERPIREISHTLRTRLNYALVKLQNGWTDKTLPELETELAPAVQTPPRRYHNRFPDSADAGTSAHTAFLQALGGHPPREEATAVETLMLLSSPTKKQQHRPVPATSAGEPTDETEPESDTEVETS
binds	GST-Whi5 phosphorylated by Pcl9-Pho85 (protein, UniProt Q12416 1-295, phosphorylated in vitro by Pcl9-Pho85; sites not given) MSLRTPKRSRTSDEQEQEQEQEQVQNPDTHVNNEHQQRPGPTTLLSTPVRLKNGFGTPSPPSPPGITKSITKSRRRPSTTSLQGIFMSPVNKRRVGITAHGRVYDHNDDGHESESEDDENEEENENQKKYDGHVSMPLLPPTTPKSRRSEVFLSPSPRLRSPPTAARRSTGERPIREISHTLRTRLNYALVKLQNGWTDKTLPELETELAPAVQTPPRRYHNRFPDSADAGTSAHTAFLQALGGHPPREEATAVETLMLLSSPTKKQQHRPVPATSAGEPTDETEPESDTEVETS
binds	GST-Whi5 phosphorylated by Cln3-Cdc28 (protein, UniProt Q12416 1-295, phosphorylated in vitro by Cln3-Cdc28; sites not given) MSLRTPKRSRTSDEQEQEQEQEQVQNPDTHVNNEHQQRPGPTTLLSTPVRLKNGFGTPSPPSPPGITKSITKSRRRPSTTSLQGIFMSPVNKRRVGITAHGRVYDHNDDGHESESEDDENEEENENQKKYDGHVSMPLLPPTTPKSRRSEVFLSPSPRLRSPPTAARRSTGERPIREISHTLRTRLNYALVKLQNGWTDKTLPELETELAPAVQTPPRRYHNRFPDSADAGTSAHTAFLQALGGHPPREEATAVETLMLLSSPTKKQQHRPVPATSAGEPTDETEPESDTEVETS

Target: T1, Whi5^GST (expressed in yeast) (S. cerevisiae)
Assay: pull-down; batch affinity chromatography: lysates of TAP-tagged HDAC strains expressing WHI5^GST incubated with glutathione sepharose beads; immunoblot with α-GST and α-PAP; also with overexpressed PCL9^FLAG, CLN2^FLAG or CLN3^FLAG (obvious decrease in Rpd3 and Hos3 in Whi5 precipitates)

binding	Binder
binds	Hos1^TAP (enzyme, UniProt Q12214 1-470) MSKLVISTSIFQSQVADLLPCNNHQKSQLTYSLINAYDLLQHFDEVLTFPYARKDDLLEFHSKSYIDYLINGRFNKMMAQDVNNPMVESKWSELSELADNWNEKIDYNPSQDLQRFTTRENLYNYYLNHSQALENNMDCINNSEVPTNDKPTDTYILNSETKQYNLEGDCPIFSYLPMYCQVITGATLNLLDHLSPTERLIGINWDGGRHHAFKQRASGFCYINDVVLLIQRLRKAKLNKITYVDFDLHHGDGVEKAFQYSKQIQTISVHLYEPGFFPGTGSLSDSRKDKNVVNIPLKHGCDDNYLELIASKIVNPLIERHEPEALIIECGGDGLLGDRFNEWQLTIRGLSRIIINIMKSYPRAHIFLLGGGGYNDLLMSRFYTYLTWCVTKQFSNLRCGDNNSFQIDPFDVCDGDDSEQFIREHDLVEMYNEENYQYWIYEMEGSSRMKMLRNDNKDRDMVELMKFYEL
binds	Hos3^TAP (enzyme, UniProt Q02959 1-697) MSSKHSDPLERFYKQFQAFVQNNPNVISAARAAAQIPESAKAVVVLSPYSLQHVFPREWVTKSYRKTIVERPERLLASSMGISAAITMYPSLFTLKSSHQRKGSLMAPHVLKVHGSSWPAELIELCQMADAKLLKGEIEVPDTWNSGDIYLSSKTIKALQGTIGAIETGVDSIFKGPSAEHISNRAFVAIRPPGHHCHYGTPSGFCLLNNAHVAIEYAYDTYNVTHVVVLDFDLHHGDGTQDICWKRAGFKPEEEPEDSSYDDFGKKFAEFPKVGYFSMHDINSFPTESGFATKENIKNASTCIMNSHDLNIWNIHLSKWTTEEEFNVLYRTKYRTLFAKADEFFRSAKLEMNQQGRPFKGLVVISAGFDASEFEQTSMQRHSVNVPTSFYTTFTKDALKLAQMHCHGKVLSLMEGGYSDKAICSGVFAHLIGLQNQDWVKEWGSEQVVKEIVRGCKPAWKPYKTKRAKDVIRIWAEEVIRLGRAMIPEFDDIIFKDAVNSAPSNSLLKATVEPASTSTIAQRIIRSHRSNASPEKELHENKPRSTEKQEQREIRSDTKVKQLSSNNRAAETQIPFLQQEFSSEDEDEEYVYDEELNKTFNRTVEDITIDDISRHLETLEIEKKGDEDSDHELKEKNWKNSHQRRLQGNGMYKIPSNTKPHRIRQPQNANTPTYDDSDISMISHVSRKHTTRSGGRW
binds	Rpd3^TAP (enzyme, UniProt P32561 1-433) MVYEATPFDPITVKPSDKRRVAYFYDADVGNYAYGAGHPMKPHRIRMAHSLIMNYGLYKKMEIYRAKPATKQEMCQFHTDEYIDFLSRVTPDNLEMFKRESVKFNVGDDCPVFDGLYEYCSISGGGSMEGAARLNRGKCDVAVNYAGGLHHAKKSEASGFCYLNDIVLGIIELLRYHPRVLYIDIDVHHGDGVEEAFYTTDRVMTCSFHKYGEFFPGTGELRDIGVGAGKNYAVNVPLRDGIDDATYRSVFEPVIKKIMEWYQPSAVVLQCGGDSLSGDRLGCFNLSMEGHANCVNYVKSFGIPMMVVGGGGYTMRNVARTWCFETGLLNNVVLDKDLPYNEYYEYYGPDYKLSVRPSNMFNVNTPEYLDKVMTNIFANLENTKYAPSVQLNHTPRDAEDLGDVEEDSAEAKDTKGGSQYARDLHVEHDNEFY

Target: T2, Whi5^MYC (S. cerevisiae)
Assay: co-IP; anti-MYC immune precipitates of WHI5^MYC strain lysates bearing HA-tagged cyclin plasmids; probed with 9E10 anti-MYC and 12CA5 anti-HA

binding	Binder
no binding	Pcl1^HA (protein, UniProt P24867 1-279) MCEYSKALHILLKSPVTDDIIKFLTDTTLRVVPSSNYPTPPGSPGEKHLTRLPSLMTFITRLVRYTNVYTPTLLTAACYLNKLKRILPRDATGLPSTIHRIFLACLILSAKFHNDSSPLNKHWARYTDGLFTLEDINLMERQLLQLLNWDLRVNTEDLILDLQPLLEPIKQDLARSSDQRKRINMMMSMNRRTCAGTSPIRSNNRFKLYEKQRNVSIASDLSSATLVDSCNDLRRLKDVTNIANNTVANTNYVRTVEKWNDNVNRQSWDLEQIMSQHGF
binds	Pcl9^HA (protein, UniProt Q12477 1-304) MISDYDALLQFNKKPVSQEMIQFLATSTASIIKIRENNNPIQGCRPPDLSIFIKNVVIQSNVQTPTLMATSVYLNKLKSVIPKNVYGINTTRHRIFLGCLILAAKTLNDSSPWNKHWTTYTEGLLRIREVNTIERELLEYLNWDVRITTPDLIDSLSYFLGPIKEQLFLQRRQEMLLFNAPSPGQLKEYINHRRPVSHSRTSSAISVPSLTSMATVSTTDSRSSLLAKYQPSLPLVESDNFNKKNHVPLRNNNDICNNFRAEENIHSVNHIDVTMGSSPVMSHKPTIHQRLNFTRRGWSSFFKQ
